The list shows a part of the results. The energies were worked out here from pooled read counts, against the library average; single values are noisy.
Each sequence was assayed against T1, Pho4 (S. cerevisiae) (UniProt P07270) (assay: relative binding free energy (BET-seq); higher = weaker binding). Conditions: reference: library average.
T1 sequence: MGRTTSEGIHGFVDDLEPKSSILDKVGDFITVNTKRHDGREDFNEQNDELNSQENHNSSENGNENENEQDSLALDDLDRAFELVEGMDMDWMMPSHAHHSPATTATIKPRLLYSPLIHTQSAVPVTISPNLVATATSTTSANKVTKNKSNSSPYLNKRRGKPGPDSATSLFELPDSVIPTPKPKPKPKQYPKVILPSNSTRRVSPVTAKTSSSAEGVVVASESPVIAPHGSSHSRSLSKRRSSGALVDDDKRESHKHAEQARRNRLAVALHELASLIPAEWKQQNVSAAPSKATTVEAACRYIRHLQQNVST

Sequence	relative binding free energy
CGATTCACGTGGTATT	0.17 kcal/mol
GCGTACACGTGTTTTT	0.14 kcal/mol
GTGATCACGTGTGCTG	0.01 kcal/mol
GTTGGCACGTGTATTA	-0.03 kcal/mol
AGTGACACGTGGAAGG	0 kcal/mol
TTGGACACGTGATGCG	0.12 kcal/mol
GAGCGCACGTGAGGTG	0.19 kcal/mol
TAAGCCACGTGGGGTA	-0.4 kcal/mol
TTAAGCACGTGAGGAG	0.09 kcal/mol
TATCTCACGTGGCGTA	0.29 kcal/mol
ATGGCCACGTGAGTGG	0.13 kcal/mol
AGTGTCACGTGGAGTG	0.09 kcal/mol
TGTTACACGTGTTTTA	0.15 kcal/mol
CGTAGCACGTGCTTGG	0 kcal/mol
GTGGGCACGTGTAGTG	-0.03 kcal/mol
GGGGGCACGTGGCCGA	-0.34 kcal/mol
TAAGCCACGTGGTTGG	-0.12 kcal/mol
GGTTACACGTGTTGGT	0.29 kcal/mol
AGGTACACGTGGTGGA	0 kcal/mol
CTTAACACGTGTTTGT	0.02 kcal/mol
GGGAGCACGTGTGTGC	-0.01 kcal/mol
TGGGGCACGTGACAAG	-0.14 kcal/mol
AATGTCACGTGGGGGT	-0.1 kcal/mol
TCTTTCACGTGTTTTG	0.21 kcal/mol
AAGGTCACGTGTTGTC	0.12 kcal/mol

Sequence	relative binding free energy
TTGGTCACGTGACTGT	0.22 kcal/mol
CAGTTCACGTGGGTGA	0.1 kcal/mol
CGTAGCACGTGTGGGT	0.01 kcal/mol
TTGGGCACGTGAAGTG	0.23 kcal/mol
TTGTTCACGTGTTCAT	0.31 kcal/mol
TAGTTCACGTGATTAG	0.27 kcal/mol
TATTTCACGTGTCATT	0.15 kcal/mol
TTTCGCACGTGGTGAG	0.1 kcal/mol
GTGTCCACGTGGGCGG	-0.04 kcal/mol
TGGAACACGTGGTTTG	0.05 kcal/mol
TAGATCACGTGGTCGG	0.14 kcal/mol
CATAGCACGTGGTGGA	-0.14 kcal/mol
TTGTACACGTGTTGGT	0 kcal/mol
AATATCACGTGTTGGC	0.09 kcal/mol
TTAAGCACGTGGGGTC	-0.22 kcal/mol
GGATGCACGTGGCCGT	-0.04 kcal/mol
TGTTGCACGTGGGTGA	-0.05 kcal/mol
TGGATCACGTGAAAAT	0.49 kcal/mol
ATGCGCACGTGAAGGG	0.13 kcal/mol
TAGGACACGTGATGTA	-0.04 kcal/mol
GTTAGCACGTGTAAGT	0.04 kcal/mol
GAGGTCACGTGAGGTC	0.43 kcal/mol
CTGTACACGTGGGTGT	-0.13 kcal/mol
GGTAACACGTGATTGT	0.21 kcal/mol
TATGTCACGTGGAGTA	0.05 kcal/mol

Sequence	relative binding free energy
CTGGGCACGTGGTTGA	-0.23 kcal/mol
CTGAGCACGTGTGCGT	0.04 kcal/mol
CTTTGCACGTGGTGGC	-0.01 kcal/mol
AGATGCACGTGTAGGG	0.01 kcal/mol
ATTGACACGTGTGTAT	-0.09 kcal/mol
CATAGCACGTGGGCGG	-0.22 kcal/mol
GTTATCACGTGTCGCT	0.3 kcal/mol
TGTTGCACGTGCAAAT	-0.01 kcal/mol
TTCTGCACGTGTGGAA	0.18 kcal/mol
TAGGGCACGTGGGTGC	-0.27 kcal/mol
GTTTGCACGTGGATTG	0.11 kcal/mol
TAGGTCACGTGAGGTG	0.25 kcal/mol
TTAGTCACGTGTATAT	0.12 kcal/mol
GGGAGCACGTGGCGTT	-0.28 kcal/mol
AGTAGCACGTGGGATT	-0.16 kcal/mol
TTCGGCACGTGTTTAA	-0.02 kcal/mol
ATTGTCACGTGAGATT	0.26 kcal/mol
CGTTTCACGTGCGGAG	0.2 kcal/mol
GTCTCCACGTGGGGTT	-0.04 kcal/mol
TGTCTCACGTGTGTGG	0.19 kcal/mol
GGGCGCACGTGGTTGC	-0.08 kcal/mol
AAGAGCACGTGGAATG	0.12 kcal/mol
TCTGTCACGTGTTGAA	0.15 kcal/mol
GTGAACACGTGTATAT	0.09 kcal/mol
TGCTGCACGTGGTTTG	0.01 kcal/mol

Sequence	relative binding free energy
TTCAGCACGTGTGATT	0.04 kcal/mol
GATTGCACGTGCTGGG	0.01 kcal/mol
ATAGCCACGTGAGGTG	0.18 kcal/mol
ACGGGCACGTGACTGG	0.13 kcal/mol
TTTATCACGTGTGAAT	0.14 kcal/mol
TTGTACACGTGGAGAA	0.08 kcal/mol
AGTTGCACGTGGGCGC	-0.21 kcal/mol
TTCTTCACGTGTCTGT	0.27 kcal/mol
GTCTTCACGTGCAGTT	0.41 kcal/mol
TAATGCACGTGCGGCG	-0.07 kcal/mol
TTTTACACGTGGGGTC	0 kcal/mol
GTTGCCACGTGTTAGT	0.02 kcal/mol
TTCTACACGTGGCGGG	0.15 kcal/mol
GGTAACACGTGAGGGA	0.35 kcal/mol
GGTTTCACGTGCAAGT	0.35 kcal/mol
GGCATCACGTGTATGT	0.22 kcal/mol
AGGGCCACGTGAGGGC	0.16 kcal/mol
GTAAGCACGTGAGAGT	0.05 kcal/mol
TGGAACACGTGGCGGC	-0.02 kcal/mol
TGTTGCACGTGGCGAG	-0.07 kcal/mol
TCCAACACGTGTGGGT	0.23 kcal/mol
AGGGGCACGTGTTTGA	-0.16 kcal/mol
TCGTGCACGTGAATGT	0.27 kcal/mol
CGCGGCACGTGTGGTG	-0.11 kcal/mol
TCGTGCACGTGTGTTT	-0.07 kcal/mol

Sequence	relative binding free energy
GGTTTCACGTGATCGT	0.25 kcal/mol
ATGTTCACGTGGGAAG	0.17 kcal/mol
AGTGGCACGTGACATG	0.03 kcal/mol
TTTTTCACGTGGCGTA	0.16 kcal/mol
TGAGGCACGTGTTAAC	0.06 kcal/mol
AGCATCACGTGTGAGG	0.15 kcal/mol
TGTACCACGTGGTAGT	-0.09 kcal/mol
GGAAGCACGTGGGATA	-0.15 kcal/mol
GTTAACACGTGATAAT	0.25 kcal/mol
TGGTACACGTGTCGGG	0.18 kcal/mol
TAGGGCACGTGCTGAT	-0.13 kcal/mol
GAGGGCACGTGGTCTA	-0.23 kcal/mol
CATTGCACGTGGTATG	-0.08 kcal/mol
TAGGGCACGTGTTATT	-0.11 kcal/mol
TTGTTCACGTGTTGCG	0.21 kcal/mol
ATGGTCACGTGGTCGA	-0.02 kcal/mol
GGGGTCACGTGGGGAG	0.1 kcal/mol
AAATTCACGTGCGTTG	0.2 kcal/mol
TGGCTCACGTGTCTAG	0.36 kcal/mol
GGTTCCACGTGTTTGG	0.12 kcal/mol
GGGGACACGTGCATGG	0 kcal/mol
TGAGGCACGTGTTGAG	-0.08 kcal/mol
CAGGGCACGTGAGGTC	0.24 kcal/mol
TTGATCACGTGCTTAT	0.03 kcal/mol
ATTTTCACGTGTTCAA	0.13 kcal/mol

Sequence	relative binding free energy
GTGCACACGTGTAGGC	0.24 kcal/mol
GGGGCCACGTGTCTGG	-0.02 kcal/mol
TGGGCCACGTGATGGA	0.07 kcal/mol
GTAGTCACGTGTTGAT	0.07 kcal/mol
GTTTACACGTGCGGGC	0.12 kcal/mol
TTCATCACGTGGTGCT	-0.04 kcal/mol
TTAGTCACGTGAATTA	0.24 kcal/mol
TGTGGCACGTGATATC	-0.02 kcal/mol
CTTGTCACGTGGTTGA	-0.02 kcal/mol
AGGTACACGTGAGATT	0.28 kcal/mol
TGGACCACGTGCGGGT	-0.09 kcal/mol
AGGGACACGTGGCTGT	-0.17 kcal/mol
TTTACCACGTGGATGG	-0.12 kcal/mol
GGGTTCACGTGTGTTC	0.47 kcal/mol
AAGGTCACGTGCGCGT	-0.03 kcal/mol
TTGTACACGTGGTAAA	0.05 kcal/mol
CGGAGCACGTGTGTTA	-0.14 kcal/mol
CTTTTCACGTGGAAGT	0.25 kcal/mol
GTCTTCACGTGGTTGG	0.19 kcal/mol
TGTCTCACGTGTCGTG	0.28 kcal/mol
TTTGTCACGTGTATAA	0.07 kcal/mol

— the BET-seq Pho4 binding data (Le et al. 2018)
